Measured values from paper PMC4336329 (PLoS ONE, 2015).
Screen size: about 310,000 compounds; about 14,000 (4.5%) showed an effect of 50% or more. Effects have a minus sign here. The list shows a part of the results.

Target: human ether-à-go-go-related gene (hERG) potassium channel (human, UniProt Q12809)
Assay: primary screen, population patch clamp on CHO cells stably expressing hERG
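Note: peak tail current of the secondary pulse compared with the same well before compound.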

human ether-à-go-go-related gene (hERG) potassium channel, sequence (Q12809 whole entry, looked up): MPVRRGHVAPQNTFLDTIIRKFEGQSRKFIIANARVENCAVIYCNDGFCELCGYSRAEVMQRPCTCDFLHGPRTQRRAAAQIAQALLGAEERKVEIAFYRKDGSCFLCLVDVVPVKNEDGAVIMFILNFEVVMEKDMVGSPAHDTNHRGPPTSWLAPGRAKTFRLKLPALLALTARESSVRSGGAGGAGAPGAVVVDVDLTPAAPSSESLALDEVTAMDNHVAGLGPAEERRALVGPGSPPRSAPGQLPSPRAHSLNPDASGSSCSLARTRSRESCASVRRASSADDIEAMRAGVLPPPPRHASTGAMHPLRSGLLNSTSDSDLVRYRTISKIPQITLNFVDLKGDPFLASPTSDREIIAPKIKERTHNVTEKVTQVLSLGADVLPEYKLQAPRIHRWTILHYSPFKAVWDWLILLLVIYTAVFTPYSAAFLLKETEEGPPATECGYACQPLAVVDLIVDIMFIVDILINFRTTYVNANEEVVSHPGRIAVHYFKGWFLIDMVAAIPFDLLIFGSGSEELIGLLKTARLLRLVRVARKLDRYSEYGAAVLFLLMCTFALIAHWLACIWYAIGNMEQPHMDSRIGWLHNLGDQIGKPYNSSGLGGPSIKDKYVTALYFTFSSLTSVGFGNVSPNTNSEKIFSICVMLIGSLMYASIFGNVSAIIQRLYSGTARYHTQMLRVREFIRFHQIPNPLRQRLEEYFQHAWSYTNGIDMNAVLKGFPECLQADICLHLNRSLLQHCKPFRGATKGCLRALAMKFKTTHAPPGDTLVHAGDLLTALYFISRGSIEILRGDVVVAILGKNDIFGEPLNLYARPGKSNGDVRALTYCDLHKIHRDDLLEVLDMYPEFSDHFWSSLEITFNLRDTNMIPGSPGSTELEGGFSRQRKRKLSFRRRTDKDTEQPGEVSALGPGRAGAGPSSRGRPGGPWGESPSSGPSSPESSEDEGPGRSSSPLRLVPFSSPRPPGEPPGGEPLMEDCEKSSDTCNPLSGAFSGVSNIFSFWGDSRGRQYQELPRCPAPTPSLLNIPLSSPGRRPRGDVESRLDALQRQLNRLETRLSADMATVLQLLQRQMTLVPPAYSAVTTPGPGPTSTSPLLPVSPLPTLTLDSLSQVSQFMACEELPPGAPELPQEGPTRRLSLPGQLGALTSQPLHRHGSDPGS

Row | SMILES | hERG current change (%, negative = inhibition) at 10uM [%]
1 | CCN(CC)CCN(C(=O)/C=C/c1cccs1)c1nc2ccc(C)cc2s1.Cl | -10.8
2 | COCc1cc(C)c(C#N)c(=S)[nH]1 | 1.94
3 | CC1Cc2ccccc2N1C(=O)Cn1cc([N+](=O)[O-])cn1 (centres unmarked) | -24.2
4 | CC1(C)CC(=O)C(C(=O)/C=C/c2ccco2)C(=O)C1 | 13.8
5 | COc1ccc(NC(=O)Cn2nnc(C(=O)NCc3cccs3)c2N)cc1OC | 11.1
6 | O=C1c2ccccc2C(O)(c2ccccc2)N1c1ccncc1 (centres unmarked) | 8.82
7 | COc1cc(C(C)=O)ccc1Oc1ccc(S(=O)(=O)N2CCOCC2)cn1 | -1.9
8 | [O-]/C(=C(\C(=S)NCc1ccco1)[n+]1ccccc1)c1ccccc1Br | -0.616
9 | CCN(CCCCCN(C)C)Cc1cc2ccccc2o1.Cl | 9.99
10 | COC(=O)c1ccc(NC(=S)NC2CCc3ccccc32)cc1 (centres unmarked) | -13.9
11 | CNC(=O)N(O)C1N(/N=C/c2c(F)cccc2Cl)C(=S)SC1(C)C (centres unmarked) | 18
12 | Cc1ccc(C(=O)N/C(=C\c2ccc([N+](=O)[O-])cc2)C(=O)NCCc2ccccc2)cc1 | -33.8
13 | CC(=O)N1C(=O)NC2=C(C(=O)CCC2)C1c1cccc([N+](=O)[O-])c1 (centres unmarked) | 24.2
14 | O=C(CSc1ccc(Br)cc1)Nc1ccccc1Oc1ccccc1 | 3.02
15 | CC(C)NC(=O)N1CCCN(c2nc3ccc(Cl)cc3s2)CC1 | -42.1
16 | O=C(Nc1cccc(F)c1)Nc1ccc2c(c1)CCC2 | 24.6
17 | O=C(O)C1C2C=CC(C2)C1C(=O)NC1CCN(Cc2ccccc2)CC1 (centres unmarked) | -1.32
18 | O=[N+]([O-])c1cccc(-c2cnc3ccccc3n2)c1 | -0.217
19 | CC(C(=O)Nc1cccc(S(=O)(=O)N2CCOCC2)c1)N1CCN(C)CC1 (centres unmarked) | -5.23
20 | O=C(NCc1ccc2c(c1)OCO2)C(=O)NCC1OCCN1S(=O)(=O)c1ccc(Cl)cc1 (centres unmarked) | -28.9
21 | COc1ccc(NC(=O)C2Cc3cc(S(=O)(=O)N4CCCCC4)ccc3N2C(C)=O)cc1Cl (centres unmarked) | 5.58
22 | CC(C)NS(=O)(=O)c1ccc(NC(=O)Cc2cccs2)cc1 | 15.9
23 | CC1CN(C(=O)c2ccc(OC3CCN(Cc4ccccn4)CC3)cc2)CCN1C (centres unmarked) | -2.06

Row | SMILES | hERG current change (%, negative = inhibition) at 10uM [%]
24 | COc1ccc(C(=O)N/C(=C\c2ccc3c(c2)OCO3)C(=O)NCCc2nc3ccccc3[nH]2)cc1 | -39.4
25 | CCC(C)NCCOc1cc(C)cc(C)c1C.O=C(O)C(=O)O (centres unmarked) | 6.06
26 | COCC(C)n1c(SCC(=O)NC(=O)Cc2ccccc2)nc2ccccc2c1=O (centres unmarked) | 2.4
27 | O=C1N=c2ccccc2=C1c1c(O)n(-c2cccc(F)c2)[nH]c1=O | 2.11
28 | CCc1nnc(NC(=O)CSc2nc(C3CCCCC3)nc3ccccc23)s1 | -11.3
29 | O=C(COC(=O)c1ccc(F)cc1)Nc1cc(S(=O)(=O)N2CCOCC2)ccc1N1CCCC1 | -28.2
30 | CCOc1cc(C(c2c(O)nc(SC)[nH]c2=O)c2c(O)nc(SC)[nH]c2=O)ccc1O | 19.4
31 | C=CCNC(=O)c1sc(SC)cc1-c1ccc(Cl)cc1 | -20.4
32 | Cc1ccc(CC2SC(N)=NC2=O)cc1 (centres unmarked) | 19.5
33 | COC(=O)c1cc(S(=O)(=O)N(C)Cc2ccco2)c[nH]1 | -0.617
34 | Fc1ccccc1CNCCc1c[nH]c2ccccc12.O=C(O)C(=O)O | -8.28
35 | COc1cc(N2C(=O)C=CC2=O)c(OC)cc1Cl | 11.9
36 | Cc1cccc(C)c1NC(=O)CSc1nc(C2CC2)nc2ccccc12 | -1.55
37 | COc1ccccc1OCC(=O)NCCc1nc2ccccc2[nH]1 | 2.13
38 | Cn1c(C(=O)Nc2ccccc2)cc2sccc21 | -12.8
39 | CCn1c(/C=C/c2ccccc2[N+](=O)[O-])nc2ccccc2c1=O | 9.59
40 | COc1cccc(=O)c2c(C)n(-c3cc(C)cc(C)c3)c(C)c12 | -10.4
41 | C=CCSc1nc(NC)c2sccc2n1 | -30
42 | CCCOC(=O)c1ccc(Oc2c(-c3ccc(O)cc3O)n[nH]c2C)cc1 | -2.68
43 | COc1cc(OC)c(NC(=O)c2c(-c3ccccc3)noc2C)cc1Cl | -4.34
44 | Cc1ccc(S(=O)(=O)N2CCCC(C(=O)NC3CC3)C2)cc1 (centres unmarked) | 12.4
45 | Cc1csc2c(=O)sc(NC(=O)c3ccc(F)cc3)nc12 | 5.93
46 | O=S(=O)(c1ccc2ccccc2c1)N1CCC(c2nc(-c3ccncc3)no2)CC1 | -18.4

Row | SMILES | hERG current change (%, negative = inhibition) at 10uM [%]
47 | CCCCc1cc(=O)oc2cc(OCc3nn[nH]n3)c(Cl)cc12 | 9.64
48 | COc1ccccc1C1CCCN1Cc1nc(-c2cc3c(cc2Cl)OCO3)oc1C (centres unmarked) | -45
49 | CCOC(=O)N1CCN(C(=O)c2cc3c(s2)-c2c(C)cccc2OC3)CC1 | -15.5
50 | CCn1c(=O)n(CC)c2cc(N)ccc21.Cl | 36
51 | Cc1cccc(NC(=O)c2cccc(C(F)(F)F)c2)c1 | -1.53
52 | Cc1cc(C)cc(N2C(=O)CC(n3ccnc3)C2=O)c1 (centres unmarked) | 5.42
53 | CCn1c(C)nc2cc(C(=O)N/N=C/c3ccc(N4CCOCC4)cc3)ccc21 | 7.11
54 | CCCCC(=O)Nc1cc(OCC)c(NC(=S)NC)cc1OCC | -3.83
55 | Cc1ccccc1C(=O)N1CCC(C(=O)N(C)CCOc2ccccc2)CC1 | 9.06
56 | CCOCCCNC(=O)C(c1ccc(C)cc1)N(Cc1ccc2c(c1)OCO2)C(=O)c1ccccn1 (centres unmarked) | -17.1
57 | CC(C)O.CCc1nnc(NS(=O)(=O)c2ccc(NC(=O)C(c3ccccc3)c3ccccc3)cc2)s1 | 2.36
58 | Clc1ccc(Cn2nnc(-c3ccccc3)n2)cc1 | 12.8
59 | O=c1c2cn[nH]c2[nH]c(=S)n1-c1cccc2ccccc12 | 2.95
60 | CC(C)(C)c1ccc(C(=O)COC(=O)CN2C(=O)NC3(CCCC3)C2=O)cc1 | 3.92
61 | NNC(=O)c1ccc(N2CCc3ccccc32)c([N+](=O)[O-])c1 | -3.16
62 | N#C/C(=C\c1ccccc1)C(=O)NCc1ccc(F)cc1 | 6.17
63 | CNC(=O)C1=C(C)Nc2nc3ccccc3n2C1c1ccc(F)cc1 (centres unmarked) | -6.47
64 | COc1ccc(N(C(=O)CNC(=O)c2ccco2)C(C(=O)NC2CCCCC2)c2cccnc2)cc1 (centres unmarked) | 1.4
65 | Br.CCOc1ccc(C2=CS/C(=C(\C#N)c3nnc4n3CCCCC4)N2CC)cc1 | -47.3
66 | COc1cccc(C(=O)NC2CCCc3c2cnn3-c2cc(C)cc(C)c2)c1 (centres unmarked) | 6.79
67 | Cc1ccc(-c2nc3cc(N)ccc3o2)cc1 | 16.3
68 | Cc1ccc(C(=O)NC2CCN(S(=O)(=O)c3ccc(C)cc3)CC2)cc1 | 19.2
69 | O=C(COc1ccccc1)NC(=S)Nc1cccc([N+](=O)[O-])c1 | 15.3

Row | SMILES | hERG current change (%, negative = inhibition) at 10uM [%]
70 | O=C(O)c1cc(-c2ccccc2)on1 | 13.3
71 | CC(/C=C/C1(O)C(C)CC(O)CC1(C)C)OC1OC(CO)C(O)C(O)C1O (centres unmarked) | 9.31
72 | O=C(Nc1ccc(N2CCOCC2)cc1)C1CCCCN1S(=O)(=O)c1ccccc1 (centres unmarked) | -0.469
73 | Cc1ccsc1CN(C)CC(=O)NCC(=O)Nc1ccc(F)cc1 | -11.3
74 | CCN(CC)CCn1c2c(c(SCC(=O)Nc3cc(C)on3)nc1=O)CCCC2 | -25
75 | COc1ccccc1NC(=O)N1CCC(C(=O)c2ccc(Cl)cc2)CC1 | -72.7
76 | O=C(c1cccc(F)c1)N1CCCC(C(=O)N2CCCC2)C1 (centres unmarked) | 19.8
77 | CCOC(=O)C1(Cc2ccccc2C(F)(F)F)CCN(C(=O)c2cc(C(C)=O)n[nH]2)CC1 | -57.2
78 | CN1C(=O)N(C)C(=O)C2(Cc3cc([N+](=O)[O-])ccc3N(C)C2c2ccccc2)C1=O (centres unmarked) | -17.6
79 | Nn1c(SCC(=O)Nc2nccs2)nnc1C1CC1 | 6.89
80 | Cc1cc(=O)oc2cc(OCC(=O)N3CCCc4ccccc43)ccc12 | -0.569
81 | Cc1ccc(NC(=O)COC(=O)[C@@H]2CCCN2C(=O)c2cccs2)cc1S(=O)(=O)N(C)C | -23.8
82 | O=C(Nc1cccs1)Nc1ccccc1Br | -1.78
83 | CC(CN)(NS(=O)(=O)c1ccccc1)c1ccccc1 (centres unmarked) | 16.6
84 | CC(=O)c1ccccc1OC(=O)CCN1C(=O)C2C3C=CC(C4CC34)C2C1=O (centres unmarked) | -24.4
85 | FC(F)(F)c1cnc(N2CCSCC2)c(Cl)c1 | 8.66
86 | CNC(=O)c1ccc2snnc2c1 | -5.72
87 | Cl.c1ccc(Cn2nnnc2C(c2cccs2)N2CCCCCC2)cc1 (centres unmarked) | 6.58
88 | O=C(c1ccc(C(F)(F)F)cc1)C1CCCN(Cc2cccn2-c2ncccn2)C1 (centres unmarked) | -80.3
89 | O=C(NCc1ccco1)c1ccc(Br)s1 | -7.38
